Assay results from the RNAGym collection of RNA variant scans (doi:10.7554/elife.90254).
Read counts are not given, so values of variants with three or more changes are uncertain.

B1: LINE1-mini (parent)
chain: GGCAGAGCUCAACACAGCGUGGCAAAGUGGCUGUGGCUAGACUGCC

Variants of: B1
Assay: self-cleavage, relative activity (ratio to wild type); higher = more cleavage; in vitro, sequencing; the parent is a self-cleaving ribozyme

Row | Variant | self-cleavage
1 | U9A A24G U32A | 0.02
2 | C8G A14U C37G A41U | 0.04
3 | G19C G30A G36C U38A | 0.04
4 | C8U C10U A12C C37G | 0
5 | C3G C10A A12U G40C | 0.05
6 | A6U C42G C46A | 0.03
7 | A4C C15A C18G | 0.1
8 | G2C G5A G17A C31U A41U C45G | 0.04
9 | G22C C23U G36A G44C | 0.05
10 | C23A U38A G44C | 0.1
11 | C10U G33C G35A | 0.01
12 | C10G G40U C42A | 0
13 | U9G G22C G27U | 0
14 | G5A C31A A41U | 0.04
15 | A4U A11C G21U U32C | 0.06
16 | A4C C31A A41C | 0.04
17 | G1U C8A U9A C13A | 0.09
18 | G7A A12C A41U C46A | 0
19 | A14C C18G C46A | 0.11
20 | C3A C31U C37A | 0.1
21 | C3A C10A C13G C15A A16C G19U A39U G44A | 0.01
22 | C3G C8U G27C G40A | 0.06
23 | C31G G36C C46U | 0.01
24 | A4U A14U G21C G33C C42U | 0.08

Row | Variant | self-cleavage
25 | A4U A12G G44A | 0.26
26 | A24G C31A U32A G33C A41C | 0.15
27 | C3U G44C C45U | 0.08
28 | U9C A11G G27A G35C C46A | 0.02
29 | G5C A11G G17U | 0.03
30 | G17C G19A G30A | 1.5
31 | G29C G30U C31U C37U | 0.06
32 | C3U G17U G21U A41G | 0.05
33 | C18U C37U A39U | 0.03
34 | C10A A11G C37G | 0.03
35 | C3U A14G C18G | 0.02
36 | A11G G29U G40A | 0.02
37 | U9G A26C C31G G35C | 0.02
38 | G5A A16U C23U U43A G44A C45U | 0.02
39 | A6C C13A A14U G36U U38G | 0.09
40 | A6G G19U G44A | 0.07
41 | A4C C10A C23U | 0.04
42 | A4C C10U C18U G19U A39G | 0.03
43 | G1A C10U C15U G27A G36U | 0.06
44 | G2U G5U G7U C23U | 0.03
45 | G21U G29C C45A | 0.48
46 | A11G C13A A25U | 0.04
47 | C8A G30U G40A | 0.31
48 | A4G G5U G7C A11C U38C | 0.01

Row | Variant | self-cleavage
49 | U9G C15U G21A G29U G35A | 0.02
50 | G7A A16C G17A G36C G40U G44A | 0.02
51 | A6U A11G C15A C31U | 0.01
52 | G7U C15U G17A A26G G27C | 0.06
53 | A6G G19U U28A C42G | 0
54 | G2C G5U A16C | 0.01
55 | G19U G22U G30A A39C | 0.32
56 | C8A G27U G29C | 0.06
57 | C13G G33A G40C G44C | 0.06
58 | G1U G5C U38G | 0.11
59 | A11G A39U G44A | 0.04
60 | G21C A24C A25G C37U | 0.02
61 | C23U U28A C31A | 0.13
62 | U9G C15A A25G G30C G36C U43C | 0.01
63 | C3A G7U U9G G22U G27C C31A G35C | 0.2
64 | A12U C13U G35A | 0.39
65 | A4U G7A C8U | 0.17
66 | G2A A12C G19A C42G | 0.02
67 | G36U A39C C42A | 0.03
68 | A4U U32G G33U | 0.07
69 | G5U A24G U34C C46A | 0.02
70 | C42G G44A C46A | 0.03
71 | G1A C8U A24G C37G | 0.34
72 | A16C G19U U20A G36A G44A | 0.2

Row | Variant | self-cleavage
73 | A16C G22A A39U | 0.07
74 | A6C C10A C13G C15A | 0.02
75 | C8A A26C G35U G44A | 0.01
76 | G7U C10G U34C | 0.05
77 | G1C C3G C8A C10U G19A C37U | 0.02
78 | C8U C13A G22A | 0.25
79 | C3U A4U A11U | 0.04
80 | A16G G19U C23A G40C | 0.16
81 | G1A C23G G27A | 0.3
82 | A6G C8U C13G G19U | 0.16
83 | C3A G27A G36C | 0.69
84 | G5C C18A C31G C42G | 0.05
85 | A25C C42U G44C | 0.05
86 | C8A A14C A25G | 0.11
87 | C3U U20A A25U G30U U38A | 0.06
88 | C3U C8A A12G G22U U32G | 0.19
89 | G21U A25C G29C | 0.22
90 | G7U A16U A25U G44C C45U | 0.03
91 | G19U G29A G44A | 0.28
92 | G7A C15G G19U | 0.24
93 | G2C G30C G33C | 0.17
94 | C13G G21C C37G | 0.01
95 | U20G A26G C42U | 0.2
96 | U28G C37U C42U | 0.01

Row | Variant | self-cleavage
97 | U9C A12U G17A | 0.02
98 | A14U A26C G36A | 0.03
99 | A6U C8U C45G | 0.55
100 | G1C A39U C45G | 0.08
101 | G17U G19C C37G U38A C42G C45U C46U | 0.01
102 | C3G C8U A11U U20C | 0.04
103 | G5A C15A U20A | 0.03
104 | A6U A11U U20G G21U U43C | 0.01
105 | G2A G29U G35U | 0.18
106 | A16U G29C U32A G36C | 0.02
107 | G5U A16U C37U | 0.05
108 | G1C A12G C18G G19U C23A | 0.02
109 | G7A U20G C42G | 0.06
110 | G2A A11C G27U G35U | 0.01
111 | G2C A12C C18G U34C | 0.01
112 | G2U C8G U20C G30A | 0.01
113 | G2A U9G C18U U20A G22C C31U U38G | 0.04
114 | A4C A14C C15U G30A | 0.1
115 | G1U C10A U43C | 0
116 | G21C G33A G40C | 0.03
117 | A12G A39U A41U | 0.13
118 | G17U C18A U38C | 0.07
119 | C18A U28C G30U | 0.53
120 | A4U G21A G22C A26C U32G | 0.06

Row | Variant | self-cleavage
121 | A16U G17U G27C | 0.14
122 | U9C A24C C46U | 0.04
123 | A12G U32G A39U | 0.16
124 | G2A C8A A14C C15U G17A G22C A24C C46G | 0.21
125 | C8A A16G U34C | 0.05
126 | G29A U38C C45U C46U | 0.8
127 | G1A C18U U43G | 0.03
128 | G17U G27U U43G | 0.27
129 | C3G A11G C18U U32G A39U C42G | 0.02
130 | U20A A24G G30A C37A G44A | 0.06
131 | C13G G17A G35A G40C | 0.21
132 | C23G G27U G35A A39G | 0.02
133 | G21A G22C A26C G30A U32A | 0.07
134 | C13U G21U C42U C45A | 0.13
135 | G2A C15G G22C U43A C45G | 0.02
136 | G1A A14U G22C G40U | 0.05
137 | G5A C15A C45G C46A | 0.02
138 | G7U A12U G40C | 0.14
139 | G2U G36A C46A | 0.14
140 | C3U G17A G22C G27C C45U | 0.05
141 | C8U C15A C42G | 0.04
142 | U9A G30C U38G | 0.02
143 | G1U C3A A14G G21U | 1.55
144 | G1C G21U U28A G40A | 0.03

Row | Variant | self-cleavage
145 | G7C U9A C18U U38A A39G | 0.02
146 | G5A A6G C8A A14G A24G U34A A41U | 0.46
147 | G2U A25C U43C C46A | 0
148 | A16C G19A U28G G33C | 0.01
149 | A16C G22A G30C C31G C45U | 0.69
150 | G19A G22A A24U | 1.18
151 | G1A C31G U32A | 0.07
152 | A6C U9G C13U C42A | 0.1
153 | C23A U28G G29C G33A | 0.87
154 | A14U U20A G22C A24C | 0.04
155 | C15A G35A G36U C37A | 0.06
156 | U20G G36A A41G C46U | 0.18
157 | G2U G5U A11U A14G | 0.01
158 | A4G C10A G17C U34G C45G | 0.02
159 | G5C A12C G40A | 0.05
160 | G30C C31G G40U U43G C46U | 0.01
161 | A4C C8U C10G G27U U43G | 0
162 | G7U C15U U20A C23U G36C C37U C46A | 0.02
163 | C13U C18U A24U A26G U34A C37A | 0.03
164 | A12C U20G A24C A25U | 0.01
165 | A11C A24G C31A C42G | 0.01
166 | U20A G33U G40A | 0.02
167 | G1A C3U A14C | 1.35
